According to PubChem BioAssay (NCI):
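Values below derive from 48-hour exposures of cells grown in 96-well plates, with endpoints linearly interpolated between the two concentrations bracketing the appropriate inhibition level. At the GI50, growth is halved. TGI marks complete inhibition of growth.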

System: NCI-H322M lung
Experiment: DTP human tumour cell line panel, 48 h

SMILES | TGI | GI50
COC(=O)c1ccccc1NC(=O)C(=O)Cc1nc2c3c(ccc2[nH]c1=O)C(=O)c1ccccc1C3=O | 51.5 µM | 
COC(=O)c1ccccc1CC1Cc2ccc3c(c2C1=O)CCCC3 (configuration not stated) | > 100 µM | 
C=CCN1C[C@H](C)N([C@H](c2ccc(C(=O)NC(CC)CC)cc2)c2cccc(OC)c2)C[C@H]1C | > 100 µM | 
NS(=O)(=O)OC[C@@H]1C[C@@H](n2ccc3c(NC4CCc5ccccc54)ncnc32)C[C@@H]1O (some centres not stated) | > 100 µM | 15.6 µM
COC1/C=C/OC2(C)Oc3c(C)c(O)c4c(O)c(c(/C=N/Nc5ccc([N+](=O)[O-])cc5[N+](=O)[O-])c(O)c4c3C2=O)NC(=O)C(C)=C/C=C/C(C)C(O)C(C)C(O)C(C)C(OC(C)=O)C1C (configuration not stated) | 21.6 µM | 9.24 µM
O=C1CCCc2cc3c(cc21)CC1(Cc2ccccc2C1)C3 | 31.3 µM | 
O=C(CCc1nc(=S)[nH][nH]1)Nc1cc(Cl)c(Cl)cc1Cl | > 100 µM | 
Fc1ccc(NC(=S)SCc2ccc3c(c2)OCO3)cc1F | 79.7 µM | 
[N-]=[N+]=NC[C@H]1OCO[C@H](CN=[N+]=[N-])[C@@H](OCCOCCCl)[C@@H]1OCCOCCCl | > 100 µM | 
Cc1ccc2c(C)c3c(ccc4ccccc43)c[n+]2c1 | 53 µM | 16.6 µM
CC1(C)OC(=O)N(c2ccccc2)C12C=Cc1cc([N+](=O)[O-])cc([N+](=O)[O-])c1O2 (configuration not stated) | > 100 µM | 
Nc1nc(Cl)cc(NCC2(CO)CC(=O)C2)n1 | > 100 µM | 
CNC(=S)OCCC(C)CCCC(C)C (configuration not stated) | 36.5 µM | 
COc1cccc(C(=O)O[C@H]2[C@@H]3[C@]4(OC(C)=O)CO[C@@H]4C[C@H](O)[C@@]3(C)C(=O)[C@H](OC(C)=O)C3=C(C)[C@@H](OC(=O)[C@H](O)[C@@H](NC(=O)OC(C)(C)C)c4ccco4)C[C@]2(O)C3(C)C)c1 | > 37.5 µM | 
Nc1ccccc1C#C/C=C\C#Cc1ccccc1OC(F)(F)F | 82.2 µM | 9.09 µM
NC1=NCCC1(c1ccccc1)c1ccccn1 (configuration not stated) | > 100 µM | 
C=CC(=O)Nc1cc(Nc2ncc(C(=O)OC(C)C)c(-c3cn(C)c4ccccc34)n2)c(OC)cc1N(C)CCN(C)C | 12 µM | < 0.012 µM
CCOC(=O)Cn1c(C(F)(F)F)nc2nc(Cl)c(Cl)nc21 | 51.4 µM | 
COC(=O)CC[N+]1=CCC(c2ccccc2)(c2ccccc2)O1 | > 100 µM | 
COc1cnc2c(c1)C(=O)c1c-2n(CCCN2CCOCC2)c(=O)c2cc(F)ccc12 | > 100 µM | 0.435 µM
Cc1cn2c(/C=N/N=C(N)N)c(-c3cccc([N+](=O)[O-])c3)nc2s1 | 3.28 µM | 
CCOC(=O)CCC1(C(=O)OCC)CCCCC1=O (configuration not stated) | > 100 µM | 

SMILES | TGI | GI50
CCCN(C(=O)c1ccccc1)C(C#N)c1ccc(C(C#N)N(CCC)C(=O)c2ccccc2)cc1 (configuration not stated) | > 100 µM | 
CC(C)=CCC\C(C)=C/C=C/C(C)=C\C=C\C(C)=C/C=C/C=C(C)\C=C\C=C(C)/C=C/C=C(/C)CCC=C(C)C | > 100 µM | 
CCN(CC)CCSc1c2ccccc2nc2cc(NCC(=O)Nc3ccccc3-c3ccccc3NC(=O)CNc3ccc4c(SCCN(CC)CC)c5ccccc5nc4c3)ccc12 | > 100 µM | 
O=[N+]([O-])c1cccc(-c2csc(NNC3=NC/C(=C/c4ccc5c(c4)OCO5)S3)n2)c1 | > 100 µM | 
COCO[C@@H]1C[C@H]2C(=O)Nc3ccccc3C(=O)N2C1 | > 100 µM | 
CC1CCc2nc[nH]c(=O)c21 (configuration not stated) | > 100 µM | > 100 µM
CCOC(=O)c1csc(NC(=O)CN2CCOCC2)n1 | > 100 µM | 
Cc1n[nH]c(=O)n1/N=C/c1ccc(Cl)cc1 | > 100 µM | 
C=C1C(=O)O[C@@H]2C(=O)[C@@H](C)CCC/C(C)=C/CC[C@@]3(C)O[C@@H]3C[C@@H]12 | > 100 µM | 
Cc1cc(-c2nc(C(=O)Nc3cc4oc(N5CCOCC5)nc4nc3N3CC[C@@H](O)C3)co2)ccn1 | > 100 µM | 29.3 µM
C=C(C)C(=O)OC1C/C(CO)=C\C(O)C/C(C)=C/C2OC(=O)C(=C)C21 (configuration not stated) | 83.6 µM | 
Cc1ccc(N=NC(=Nc2ccccc2)c2ccc(N(CCC#N)CCC#N)cc2)cc1 | > 100 µM | 
O=C(Nc1nc2ccc([N+](=O)[O-])cc2s1)C(=O)C(C1OC(=O)c2ccccc21)[N+](=O)[O-] (configuration not stated) | > 100 µM | 
O=[N+]([O-])c1ccc2c(c1)c(OCc1ccccc1)nn2Cc1ccccc1 | > 100 µM | 
CCOC1Oc2ccccc2C(=O)/C1=C/Nc1ccc(C(C)=O)cc1 (configuration not stated) | 60.3 µM | 21.9 µM
Nc1nc(-n2c(-c3ccccc3)nc3c(Br)cc(Br)cc3c2=O)nnc1-c1cccc(Cl)c1Cl | 8.22 µM | 2.48 µM
COc1ccc(-c2c(C#N)c(-c3ccc(C)cc3)n(NS(=O)(=O)c3ccc(C)cc3)c(=O)c2C#N)cc1 | > 100 µM | 
CCN1/C(=C\c2cc[n+](CC)c3ccccc23)C=Cc2ccccc21 | 11.8 µM | 0.413 µM
CN(C)N=Nc1ccc(C(N)=O)cc1 | > 100 µM | 
Cc1ccnc2c1ccc1c(C)ccnc12 | 11.8 µM | 0.451 µM
CC(C)(C)N1CSC(=S)N(Cc2ccco2)C1 | 25.9 µM | 
Cc1c(C(=O)CC(=O)C(=O)Nc2ccccc2C(F)(F)F)[n+](=O)c2ccccc2n1[O-] | 67 µM | 

SMILES | TGI | GI50
O=C1CC(NC(=O)C(F)(F)F)c2c(Br)sc(N3CCNCC3)c21 (configuration not stated) | > 100 µM | 
O=C1/C(=C/c2ccc(O)c(O)c2)CCC/C1=C\c1ccc(O)c(O)c1 | 22.2 µM | 
N#Cc1c(N2CCCC2)ncn(-c2ccccc2)c1=O | > 100 µM | 
O=c1c2cc([N+](=O)[O-])cnc2sn1-c1ccc([N+](=O)[O-])cc1 | > 100 µM | 
N#Cc1c(-c2ccccc2)/c(=C\Nc2cccc(C(F)(F)F)c2)c(=O)n2c1nc1ccccc12 | > 100 µM | 
Cc1ccc(NC(=O)Nc2ccc(-c3cccnc3)cc2N2CCC(CO)CC2)cc1 | > 100 µM | 3.77 µM
COC(=O)/C=C1\S/C(=N\NC(=O)c2cc3ccc2/C=C\c2ccc(cc2)/C=C\3)N(c2ccccc2)C1=O | 4.75 µM | 2.02 µM
CC(=O)[CH-]C(=O)c1ccccc1.CC(=O)[CH-]C(=O)c1ccccc1.CN(C)c1ccc([O-])cc1.CN(C)c1ccc([O-])cc1.Cl.[Ti+4] | > 31.6 µM | 25.8 µM
COc1cccc(C2c3cc4c(cc3OC(C)(N3CCCC3)C2C)OCO4)c1O (configuration not stated) | 12.7 µM | 
Cc1nc2sccn2c1-c1csc(Nc2ccccc2Cl)n1 | > 100 µM | 10.1 µM
COc1cc(C(=O)N(C(=S)OCc2ccccn2)c2ccccc2)cc(OC)c1OC | > 100 µM | 
O=C(O)CCC(NC(=O)c1ccc(Nc2nc3ccccc3nc2-c2cccs2)cc1)C(=O)O (configuration not stated) | > 100 µM | 
COc1ccc2c(c1)/C(=C/CCN(C)C)c1ccccc1S2 | > 100 µM | 
CCOC(=O)CSc1c(C(=O)OCC)c(=O)n(-c2ccccc2)c(=S)n1-c1ccccc1 | > 100 µM | 
CCN1CCN(Cc2ccc(NC(=O)c3cccc(C#Cc4cccc5[nH]nc(N)c45)c3)cc2C(F)(F)F)CC1 | 1.77 µM | 0.59 µM
CN1CCc2cc(N)cc3c2C1Cc1ccc(O)c(O)c1-3 (configuration not stated) | > 100 µM | 
Cc1ccccc1C(=O)N1CCc2c([nH]c3ccccc23)C1 | > 100 µM | 
COc1ccc(CC2c3cc4c(cc3CCN2C)OCO4)c(C=O)c1OC (configuration not stated) | > 100 µM | 
COc1cc2c(c(OC)c1OC)C(=O)[C@@H]1[C@H]2N1C(N)=O | > 100 µM | 
Nc1ccccc1S(=O)(=O)N(CC(=O)O)c1ccccc1 | > 100 µM | 
COc1cc2cc(OC)c3cc4c(cc3c2c(OC)c1OC)OCO4 | > 100 µM | 
